Reference: PubChem BioAssay (NCATS)
Inconclusive means that the source gave no clear call. Such entries were picked first, then a sample of the others. No potency is given beside an inconclusive call; the fits are too rough. Active and inactive are the calls of the source. Calls follow the shape of the dose curve; as a rule, active = well fitted activation curve with a large enough effect; inconclusive = small, poorly fitted or top-dose-only effect; inactive = no such curve, though single readings can be large or run the other way.

molecular target: Rap guanine nucleotide exchange factor 3 (Homo sapiens) (UniProt O95398); experiment: Confirmatory qHTS for agonist of cAMP-regulated guanine nucleotide exchange factor 3 (EPAC1) (AID 1645881); settings: EPAC1 Rap1B BODIPY-GDP exchange fluorescence; activation: at 154 µM (top of the series), 100% = cAMP control response; also: nearly all actives have a fitted effect of over 75% in size;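 as to activation: EPAC1 catalysed release of BODIPY-GDP from Rap1B seen as fluorescence loss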
Potency is read from the fitted curve at half-maximal effect; tags tell the direction and shape of the fitted curve.

Sequence of UniProt O95398 (O95398 whole entry, looked up): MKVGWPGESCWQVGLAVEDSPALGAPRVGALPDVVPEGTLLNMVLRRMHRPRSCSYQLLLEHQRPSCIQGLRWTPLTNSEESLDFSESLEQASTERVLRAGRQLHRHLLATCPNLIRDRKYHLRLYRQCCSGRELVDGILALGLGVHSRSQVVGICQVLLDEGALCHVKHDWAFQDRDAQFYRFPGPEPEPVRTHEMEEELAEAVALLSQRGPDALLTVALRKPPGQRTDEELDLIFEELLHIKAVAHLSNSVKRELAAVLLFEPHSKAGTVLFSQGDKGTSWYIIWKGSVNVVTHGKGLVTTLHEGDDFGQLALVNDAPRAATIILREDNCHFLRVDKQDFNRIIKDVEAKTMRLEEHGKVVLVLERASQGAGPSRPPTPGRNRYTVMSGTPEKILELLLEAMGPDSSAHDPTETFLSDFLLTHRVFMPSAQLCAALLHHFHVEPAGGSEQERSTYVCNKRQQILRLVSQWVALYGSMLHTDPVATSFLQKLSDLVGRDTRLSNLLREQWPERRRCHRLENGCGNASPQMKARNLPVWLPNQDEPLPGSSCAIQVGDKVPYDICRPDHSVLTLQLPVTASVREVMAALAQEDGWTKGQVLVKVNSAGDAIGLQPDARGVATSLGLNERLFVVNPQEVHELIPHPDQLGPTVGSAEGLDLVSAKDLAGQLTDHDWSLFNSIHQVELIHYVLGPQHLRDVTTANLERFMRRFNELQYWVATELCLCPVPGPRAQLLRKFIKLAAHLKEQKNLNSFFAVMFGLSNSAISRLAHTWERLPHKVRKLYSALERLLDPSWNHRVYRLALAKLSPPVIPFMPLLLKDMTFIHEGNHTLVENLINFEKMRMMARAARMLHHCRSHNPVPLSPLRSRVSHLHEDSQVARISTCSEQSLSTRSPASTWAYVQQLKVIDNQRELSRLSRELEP

SMILES | Potency | activation
CCC(NC(=O)Nc1ncccc1C)(C(F)(F)F)C(F)(F)F | inactive | 
CC(=O)c1c(-c2ccccc2)c2cc(Cl)ccc2n(C)c1=O | inactive | 
O=C1CCC/C(=N/NC(=O)c2sc3ccccc3c2Cl)C1 | inactive | 
O=C1/C(=C/C=C/c2ccccc2)Oc2c1ccc(O)c2CN1CCN(CCO)CC1 | inconclusive [activator, partial curve, poor fit] | 
Cc1sc(N)c(C(=O)c2cccc(C(F)(F)F)c2)c1C | inactive | 
O=C1CSC(c2ccc(Cl)c(Cl)c2)N1c1nccs1 (stereo not given) | inconclusive [activator, partial curve, poor fit] | 
CCN(CC)c1ccc2cc(-c3nnc(-c4ccncc4)o3)c(=O)oc2c1 | inconclusive [activator, partial curve, poor fit] | 
N#C/C(=C/c1ccc(N2CCOCC2)o1)c1nc2ccccc2[nH]1 | active: 112 µM | 
O=S1(=O)C=C(Oc2ccc3ccccc3c2)c2ccccc21 | inconclusive [activator, partial curve, poor fit] | 
COC(=O)CCc1nc2cc(Cl)ccc2n(Cc2ccccc2)c1=O | inconclusive [activator, partial curve, poor fit] | 
O=C(NN1C(=O)/C(=C/c2ccc(O)c(O)c2)SC1=S)c1ccccc1 | inactive | 
COc1ccccc1NC(=O)c1sc2nc(Cc3ccccc3)cc(C(F)(F)F)c2c1N | inconclusive [activator, partial curve, poor fit] | 
Nc1ccccc1Oc1ccc2ccccc2c1 | inconclusive [activator, partial curve, poor fit] | 
O=C(COc1cccc(OC(F)F)c1)Nc1ccc(SC(F)F)cc1 | inconclusive [activator, full curve, poor fit] | 
CCOc1ccc(CCN2C(=O)C(=O)N([C@@H](CC(C)C)CN3CCC[C@@H]3CN3C(=O)C(=O)NC[C@@H]3Cc3ccccc3)C[C@@H]2CC(C)C)cc1 |  | inconclusive: 3.58% [activator]
CCOc1ccc(C(=O)Nc2c(C(=O)Nc3ccccc3F)oc3ccccc23)cc1OCC | inactive | 
COC(=O)c1cc2sc(Cl)cc2n1Cc1cc(C)ccc1C | inconclusive [activator, single point] | 
Cc1ccc(NC(=O)c2ccc(Cl)cc2Cl)c(C(=O)c2ccccc2)c1 | inactive | 
Cc1ccc2c(c1)C(c1ccccc1)CC(=O)O2 (stereo not given) | inactive | 
Oc1ccc2ccc3cccc[n+]3c2c1 | active: 112 µM | 

SMILES | Potency | activation
O=C(c1ccco1)N1CCn2cccc2C1c1ccccc1 (stereo not given) | inactive | 
CN1C(=O)/C(=C\c2ccc(N(C)C)cc2)OC1=S | inactive | 
CCOC(=O)[C@@H](NC(=O)/C=C/[C@H]1O[C@@H](n2cc(C)c(=O)[nH]c2=O)C[C@@H]1O)C(C)C | inactive | 
COc1ccc(NC(=O)c2c(-c3ccccc3)c(-c3ccccc3)nn(C)c2=O)c(OC)c1 |  | inconclusive: 31% [activator]
CN(CCc1ccccc1)C(=O)c1cc(COc2cccc(C(F)(F)F)c2)on1 | inactive | 
COc1ccccc1/C=C/C=C1\Oc2c(ccc(O)c2CN(C)C)C1=O | active: 89.1 µM | 
Cc1cc(/C=N/NC(N)=S)c(O)c(/C=N/NC(N)=S)c1 | active: 44.7 µM | 
Cc1ccc2oc(=O)n(Cc3ccccc3)c2c1 | inconclusive [activator, partial curve, poor fit] | 
CC(=O)Nc1sc2c(c1-c1nc3ccccc3s1)CN(C(C)C)CC2 | inconclusive [activator, partial curve, poor fit] | 
CSc1ncccc1C(=O)OCc1c(F)cccc1Cl | inconclusive [activator, partial curve] | 
COC(=O)C1=CC(C(=O)c2cccs2)=NN(c2ccc(OC)cc2)C1C(=O)OC (stereo not given) | inconclusive [activator, partial curve] | 
CCNc1ccc2noc3c2c1C(=O)c1ccccc1-3 | active: 100 µM | 
NC(=O)c1c(NC(=O)c2ccccc2)sc2c1CCN(Cc1ccccc1)C2 | inconclusive [activator, single point] | 
CCOc1ccc(/C(C)=N/NC(=O)C(OC)c2ccccc2)cc1 (stereo not given) | inactive | 
O=C(O)COc1ccc(NC(=O)C(c2ccccc2)c2ccccc2)cc1 | inactive | 
CN1CCN(C2=CC3=CC(=C(C#N)C#N)CCC3CC2)CC1 (stereo not given) | active: 44.7 µM | 
O=C(C(=Cc1ccc(O)cc1)c1ccccc1)c1ccccc1 | inconclusive [activator, partial curve] | 
Cc1ccc(NC(=O)CSc2nnc(-c3cc4occc4n3C)n2-c2ccccc2C)c(Cl)c1 | inconclusive [activator, single point] | 
O=S1(=O)NC(c2ccccc2)CC(CC2CCCCC2)O1 (stereo not given) | inconclusive [activator, full curve, poor fit] | 
Cc1cccc(N2C(=O)c3cccc4c(N)ccc(c34)C2=O)c1 | inconclusive [activator, partial curve, poor fit] | 
